Assay results: the supplement of paper PMC10126150
Sequences with one replicate were seen in a single cluster, so their values are uncertain.

System: ATP
Assay: switch fluorescence ratio, 500 uM ATP over buffer (Cy3 cluster intensity, sum of 5 cycles each) (fold (ratio)); higher = stronger signal-on switching upon ATP binding; sequences stand for … in TCGTCGGCAGCGTCAGATGTGTATAAGAGACAGTTTTTTTTTTTTTTTTTTTTTTTTT…TC
Conditions: aptamer strand: ATP DNA aptamer (quencher-CACCTGGGGGAGTATTGCGGAGGAAGG + anchor), 100 nM annealed; ATP concentration: 500 uM; one replicate
Method in brief: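 The fluorescence ratio divides summed target-cycle Cy3 intensity by summed buffer-cycle Cy3 intensity for each cluster and is averaged per switch-domain sequence. Cy3-labelled switching-strand clusters on a modified Illumina MiSeq flow-cell were annealed to 100 nM quencher-labelled ATP aptamer, then imaged in selection buffer and again after 15 min with 500 uM ATP at 22 °C. Five such cycles were run, with NaOH stripping and re-annealing between them, and clusters outside 100-1000 RFU were excluded.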
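Note: ATP exposure 15 min at 22 °C before imaging.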

Sequence	switch fluorescence ratio
GCCAGGAGGA	1.03
TGTATGCCTA	1.05
GCGAGTGTG	0.996
GTTAATTCCG	1.04
CTCCTCTATG	1.17
TTTTACACGT	1.05
CGTCTGCTTG	1.03
CAGCTTATCC	1.09
ATTAATGAT	1.01
TTTACAACGG	1
ACCGAGGG	1.07
TAAGTACGTA	1.09
AGTTGTTCCC	1.04
GGGACTAAAT	0.95
TGCCGATAAA	1.01
ACGGCAATTT	1.31
AAACCACGAC	1.28
ATCGGATGAG	0.982
TACCATTGGT	1.03
AAAACCCCGC	1.4
GGAAGGATTT	1.13
GGGAACGCGG	1.14
TGCAGAGCTC	1.01

Sequence	switch fluorescence ratio
GCTCTTCGCG	1.01
AGCGATTATG	1.03
CCACCGATTG	1.18
CTTGGAGCTC	1.07
AGCCCTATTC	0.966
ACTTGTCTAA	1.05
TGGCGACGAT	1.01
TGCTGGGACC	1.01
CTCGCGCCCG	1.06
GACATTACGT	1.44
AAAGTGGACT	0.97
ACCCTATTAC	1.16
GGCTACTATG	1.05
ATAACAGCGT	0.998
GCAACTCAGA	1.02
TGACCATCTC	1.09
GACCTAGTAT	1.01
TGGATATGCG	1.01
TCCGTTGAAG	1.01
GAGTGACATC	0.892
TGAAATGTTG	0.978
CCGGGTTCAT	1.04
GGGAATGCCC	1.03

Sequence	switch fluorescence ratio
TAAGCGTCCG	1.01
CACTGTAATA	1.3
AACGGATGTC	0.982
GCATTTCGGA	0.993
CGTCTACCTA	1.05
TTCTCGAAAT	1.03
TTGTGGATTT	0.999
ACTCATAACT	1.01
TAAGCTTAGA	0.97
CCGGTGGGTT	0.991
TTTGGCCAAC	1.07
CTGGGATTCG	0.987
AATTAACACA	1.03
CCACGCGTAA	2.09
GCTCTGGTCA	0.957
CATTGTGCTT	1.02
ACAGTAAAGG	1.09
TATGATAACG	0.999
AGCCACCAAT	1.03
TAGTTATCTT	1.04
TTATAGGATG	0.994
CAAGTCGCG	0.967
CCCGTGTTA	0.984

Sequence	switch fluorescence ratio
GTTGGTGAGA	0.929
ATACCGGTGA	1.03
GGGACGGGAT	0.937
AGTGGGAAC	1.01
GTGACGCAGA	1.84
AACCGCAGAT	1.43
TTGAACCTGG	1.02
GGGTTGGCGG	0.977
AGGAGAGCGT	1
GCCTGTGTAG	0.961
CAAACGGTAT	1.04
ATTATCTCGA	1.02
GGGTCGAGTA	1.11
CTTCATGTCC	0.915
CCGGGCGATT	1.01
AGGGAGTGCA	0.958
TCAATGGAGG	1.05
TTGGCGCAAG	1.07
ACGGGGATAT	1.13
AAGGCCTTC	1.04
CGTATGTATC	0.952
CAAGGCCTTA	1.02
CACCCTTTAC	1.63

Sequence	switch fluorescence ratio
AGCTTAAATA	0.971
TTACTAT	1.03
CGTGTGCATT	0.972
CTAGAGGGTT	0.993
CATACCACAC	1.53
GCCGGATGA	1
AGTGAGACTC	1.13
GAGTGTCATG	0.971
TCGTAAGATT	1
ACTTTTATAT	0.985
TTGCTACTTC	0.991
ATGGTTAGTT	0.992
GCCCGGGGTC	1.02
GATGTATTCC	1.06
ATTATGTTAG	0.962
GAAATTACTC	1.06
CGCAGAGCGC	1.05
GCAGTGTATC	0.985
GACGAATTAA	1.13
CTTTATACTT	0.985
CCTGTGTTGT	1
TGGGAACTAT	1.04
CGCATGTGT	0.985

Sequence	switch fluorescence ratio
ACGAGGGCGC	1.17
CTACATGTAG	1.02
TTGCTTTCCT	1.04
ATCTGGTTGG	1.03
CAGTTACAGC	1.05
CATGCGTGGT	1.01
ATAGTCTGA	0.984
TAACGACGGC	1.09
GTTATTTCAA	1.03
GCGTGTTTCC	1.04
TGGTCGAAAT	0.991
TCTTGGGCCA	0.991
TTCTACACAA	1.77
ATAGTGGCGT	0.965
CCGTCTCGCT	1.09
TTCTACAGT	1.02
CAGATAGTCG	0.954
TGTGTGGAAG	0.999
CTATAGTGCG	0.995
CCGGAGTTTA	2.92
CTTGCCCGAT	1.02
CTGTGACTGT	1.01
ATTACCTGTG	1.02

Sequence	switch fluorescence ratio
GATTACTCTA	1.06
CAAGATGTGA	0.958
CGTGGACGTC	0.998
TATCTCAGGT	0.992
CCTTTTCCT	1.45
TTGGGATCTT	1.02
TGGAACCAGG	1.3
TCCCCAGGAA	1.29
AATCTCAATC	1.13
CGTGCACGGG	1.01
ATCGTCAGGG	1
ATGAAATGG	1.01
AACAGGCATA	0.999
TTAGTGGAGC	0.96
AGTATAGGTT	1.02
GATCTTCTTG	0.971
CTGAGATAGA	1.01
TCAAAAAACA	1.01
CCTTGAATTT	0.99
